# Source: the supplement of paper PMC8728848
# The list shows a part of the results.
# B1: LngA (Escherichia coli) (protein)
# chain: MLSVYNRTQKFKAEARKKIAKYHELRKQRGMSLLEVIIVLGIIGTIAAGVVILAQRAFDSRAVTDLVTNTNTVRVRMKDAYQRDGKYPDFVDPLSLTANTIKTDTSGIPAAQLVQLGKITPDEVRNNISGDFIAIGGALTSNGAQVKKGFAIELNGLSQEQCRSILGQVGNNWEYVAIGTSASGSYAMTATGVDMSVAASTTVLRSLGNNGQTTLTADKILSTCTAQVNSITLGSR
# How the values were obtained:
# Test in all cases: glycan array binding signal (z-score within array); higher = stronger binding
# Conditions in all cases: glycan notation: IUPAC condensed, linker removed
# Glc(b1-6)Glc = target: Glc(b1-6)Glc
# Method in brief: (§1)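 The binding signal is a Z-score computed within each array and averaged over linkers. Arrays of the same protein sequence at different concentrations or buffers were also averaged together. Data originate from 3228 arrays in the Consortium for Functional Glycomics database, kept only where the protein sequence was available.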
# GlcA(b1-3)Gal = target: GlcA(b1-3)Gal
# Method in brief: as §1
# GlcA(b1-3)GlcNAc = target: GlcA(b1-3)GlcNAc
# Method in brief: as §1
# GlcA(b1-6)Gal = target: GlcA(b1-6)Gal
# Method in brief: as §1
# [1] = target: GlcA3S(b1-3)Gal(b1-4)GlcNAc(b1-2)Man
# Method in brief: as §1
# [2] = target: GlcA3S(b1-3)Gal(b1-4)GlcNAc(b1-3)Gal(b1-4)Glc
# Method in brief: as §1
# [3] = target: GlcNAc(a1-3)Gal(b1-4)GlcNAc
# Method in brief: as §1
# [4] = target: GlcNAc(a1-4)Gal(b1-3)GlcNAc
# Method in brief: as §1
# [5] = target: GlcNAc(a1-4)Gal(b1-4)GalNAc
# Method in brief: as §1
# [6] = target: GlcNAc(a1-4)Gal(b1-4)GlcNAc
# Method in brief: as §1
# [7] = target: GlcNAc(a1-4)Gal(b1-4)GlcNAc(b1-3)Gal(b1-4)Glc
# Method in brief: as §1
# [8] = target: GlcNAc(a1-4)Gal(b1-4)GlcNAc(b1-3)Gal(b1-4)GlcNAc
# Method in brief: as §1
# [9] = target: GlcNAc(a1-4)Gal(b1-4)GlcNAc(b1-3)Gal(b1-4)GlcNAc(b1-3)Gal(b1-4)GlcNAc
# Method in brief: as §1
# [10] = target: GlcNAc(a1-4)Gal(b1-4)GlcNAc(b1-3)Gal(b1-4)[Fuc(a1-3)]GlcNAc(b1-3)Gal(b1-4)[Fuc(a1-3)]GlcNAc
# Method in brief: as §1
# [11] = target: GlcNAc(a1-6)Gal(b1-4)GlcNAc
# Method in brief: as §1
# [12] = target: GlcNAc(b1-2)Gal(b1-3)GalNAc
# Method in brief: as §1
# [13] = target: GlcNAc(b1-2)Man(a1-3)[GlcNAc(b1-2)Man(a1-6)]Man(b1-4)GlcNAc(b1-4)GlcNAc
# Method in brief: as §1
# [14] = target: GlcNAc(b1-2)Man(a1-3)[GlcNAc(b1-2)Man(a1-6)]Man(b1-4)GlcNAc(b1-4)[Fuc(a1-6)]GlcNAc
# Method in brief: as §1
# [15] = target: GlcNAc(b1-2)Man(a1-3)[GlcNAc(b1-4)][GlcNAc(b1-2)Man(a1-6)]Man(b1-4)GlcNAc(b1-4)GlcNAc
# Method in brief: as §1
# [16] = target: GlcNAc(b1-2)Man(a1-3)[GlcNAc(b1-4)][GlcNAc(b1-2)Man(a1-6)]Man(b1-4)GlcNAc(b1-4)[Fuc(a1-6)]GlcNAc
# Method in brief: as §1
# [17] = target: GlcNAc(b1-2)[GlcNAc(b1-4)]Man(a1-3)[GlcNAc(b1-2)Man(a1-6)]Man(b1-4)GlcNAc(b1-4)GlcNAc
# Method in brief: as §1
# [18] = target: GlcNAc(b1-2)[GlcNAc(b1-4)]Man(a1-3)[GlcNAc(b1-4)][GlcNAc(b1-2)Man(a1-6)]Man(b1-4)GlcNAc(b1-4)GlcNAc
# Method in brief: as §1
# [19] = target: GlcNAc(b1-2)[GlcNAc(b1-4)]Man(a1-3)[GlcNAc(b1-4)][GlcNAc(b1-2)[GlcNAc(b1-6)]Man(a1-6)]Man(b1-4)GlcNAc(b1-4)GlcNAc
# Method in brief: as §1
# [20] = target: GlcNAc(b1-2)[GlcNAc(b1-4)]Man(a1-3)[GlcNAc(b1-4)][GlcNAc(b1-2)[GlcNAc(b1-6)]Man(a1-6)]Man(b1-4)GlcNAc(b1-4)[Fuc(a1-6)]GlcNAc
# Method in brief: as §1
# [21] = target: GlcNAc(b1-2)[GlcNAc(b1-6)]Man(a1-6)[GlcNAc(b1-2)Man(a1-3)]Man(b1-4)GlcNAc(b1-4)GlcNAc
# Method in brief: as §1
# [22] = target: GlcNAc(b1-2)[GlcNAc(b1-6)]Man(a1-6)[GlcNAc(b1-2)Man(a1-3)]Man(b1-4)GlcNAc(b1-4)[Fuc(a1-6)]GlcNAc
# Method in brief: as §1
# [23] = target: GlcNAc(b1-2)[GlcNAc(b1-6)]Man(a1-6)[GlcNAc(b1-4)][GlcNAc(b1-2)Man(a1-3)]Man(b1-4)GlcNAc(b1-4)GlcNAc
# Method in brief: as §1
# GlcNAc(b1-3)Fuc = target: GlcNAc(b1-3)Fuc
# Method in brief: as §1
# GlcNAc(b1-3)Gal = target: GlcNAc(b1-3)Gal
# Method in brief: as §1
# [24] = target: GlcNAc(b1-3)Gal(b1-3)GalNAc
# Method in brief: as §1
# GlcNAc(b1-3)Gal(b1-4)Glc = target: GlcNAc(b1-3)Gal(b1-4)Glc
# Method in brief: as §1
# [25] = target: GlcNAc(b1-3)Gal(b1-4)GlcNAc
# Method in brief: as §1
# [26] = target: GlcNAc(b1-3)Gal(b1-4)GlcNAc(b1-2)Man(a1-3)[GlcNAc(b1-3)Gal(b1-4)GlcNAc(b1-2)Man(a1-6)]Man(b1-4)GlcNAc(b1-4)GlcNAc
# Method in brief: as §1
# [27] = target: GlcNAc(b1-3)Gal(b1-4)GlcNAc(b1-2)Man(a1-3)[GlcNAc(b1-3)Gal(b1-4)GlcNAc(b1-2)Man(a1-6)]Man(b1-4)GlcNAc(b1-4)[Fuc(a1-6)]GlcNAc
# Method in brief: as §1
# [28] = target: GlcNAc(b1-3)Gal(b1-4)GlcNAc(b1-2)[GlcNAc(b1-3)Gal(b1-4)GlcNAc(b1-6)]Man(a1-6)[GlcNAc(b1-3)Gal(b1-4)GlcNAc(b1-2)Man(a1-3)]Man(b1-4)GlcNAc(b1-4)GlcNAc
# Method in brief: as §1
# [29] = target: GlcNAc(b1-3)Gal(b1-4)GlcNAc(b1-3)Gal(b1-4)GlcNAc
# Method in brief: as §1
# [30] = target: GlcNAc(b1-3)Gal(b1-4)GlcNAc(b1-3)Gal(b1-4)GlcNAc(b1-2)Man(a1-3)[GlcNAc(b1-3)Gal(b1-4)GlcNAc(b1-3)Gal(b1-4)GlcNAc(b1-2)Man(a1-6)]Man(b1-4)GlcNAc(b1-4)GlcNAc
# Method in brief: as §1
# [31] = target: GlcNAc(b1-3)Gal(b1-4)GlcNAc(b1-3)Gal(b1-4)GlcNAc(b1-2)Man(a1-3)[GlcNAc(b1-3)Gal(b1-4)GlcNAc(b1-3)Gal(b1-4)GlcNAc(b1-2)Man(a1-6)]Man(b1-4)GlcNAc(b1-4)[Fuc(a1-6)]GlcNAc
# Method in brief: as §1
# [32] = target: GlcNAc(b1-3)Gal(b1-4)GlcNAc(b1-3)Gal(b1-4)GlcNAc(b1-2)[GlcNAc(b1-3)Gal(b1-4)GlcNAc(b1-3)Gal(b1-4)GlcNAc(b1-6)]Man(a1-6)[GlcNAc(b1-3)Gal(b1-4)GlcNAc(b1-3)Gal(b1-4)GlcNAc(b1-2)Man(a1-3)]Man(b1-4)GlcNAc(b1-4)[Fuc(a1-6)]GlcNAc
# Method in brief: as §1
# [33] = target: GlcNAc(b1-3)Gal(b1-4)GlcNAc(b1-3)Gal(b1-4)GlcNAc(b1-3)Gal(b1-4)GlcNAc(b1-2)Man(a1-3)[GlcNAc(b1-3)Gal(b1-4)GlcNAc(b1-3)Gal(b1-4)GlcNAc(b1-3)Gal(b1-4)GlcNAc(b1-2)Man(a1-6)]Man(b1-4)GlcNAc(b1-4)GlcNAc
# Method in brief: as §1
# [34] = target: GlcNAc(b1-3)Gal(b1-4)GlcNAc(b1-3)Gal(b1-4)GlcNAc(b1-3)Gal(b1-4)GlcNAc(b1-2)Man(a1-3)[GlcNAc(b1-3)Gal(b1-4)GlcNAc(b1-3)Gal(b1-4)GlcNAc(b1-3)Gal(b1-4)GlcNAc(b1-2)Man(a1-6)]Man(b1-4)GlcNAc(b1-4)[Fuc(a1-6)]GlcNAc
# Method in brief: as §1
# [35] = target: GlcNAc(b1-3)Gal(b1-4)GlcNAc(b1-3)Gal(b1-4)GlcNAc(b1-3)Gal(b1-4)GlcNAc(b1-2)[GlcNAc(b1-3)Gal(b1-4)GlcNAc(b1-3)Gal(b1-4)GlcNAc(b1-3)Gal(b1-4)GlcNAc(b1-6)]Man(a1-6)[GlcNAc(b1-3)Gal(b1-4)GlcNAc(b1-3)Gal(b1-4)GlcNAc(b1-3)Gal(b1-4)GlcNAc(b1-2)Man(a1-3)]Man(b1-4)GlcNAc(b1-4)[Fuc(a1-6)]GlcNAc
# Method in brief: as §1
# [36] = target: GlcNAc(b1-3)Gal(b1-4)GlcNAc(b1-3)Gal(b1-4)GlcNAc(b1-3)Gal(b1-4)GlcNAc(b1-3)Gal(b1-4)GlcNAc(b1-2)Man(a1-3)[GlcNAc(b1-3)Gal(b1-4)GlcNAc(b1-3)Gal(b1-4)GlcNAc(b1-3)Gal(b1-4)GlcNAc(b1-3)Gal(b1-4)GlcNAc(b1-2)Man(a1-6)]Man(b1-4)GlcNAc(b1-4)GlcNAc
# Method in brief: as §1
# [37] = target: GlcNAc(b1-3)Gal(b1-4)GlcNAc(b1-3)Gal(b1-4)GlcNAc(b1-3)Gal(b1-4)GlcNAc(b1-3)Gal(b1-4)GlcNAc(b1-2)Man(a1-3)[GlcNAc(b1-3)Gal(b1-4)GlcNAc(b1-3)Gal(b1-4)GlcNAc(b1-3)Gal(b1-4)GlcNAc(b1-3)Gal(b1-4)GlcNAc(b1-2)Man(a1-6)]Man(b1-4)GlcNAc(b1-4)[Fuc(a1-6)]GlcNAc
# Method in brief: as §1
# [38] = target: GlcNAc(b1-3)Gal(b1-4)GlcNAc(b1-3)Gal(b1-4)GlcNAc(b1-3)Gal(b1-4)GlcNAc(b1-3)Gal(b1-4)GlcNAc(b1-2)[GlcNAc(b1-3)Gal(b1-4)GlcNAc(b1-3)Gal(b1-4)GlcNAc(b1-3)Gal(b1-4)GlcNAc(b1-3)Gal(b1-4)GlcNAc(b1-6)]Man(a1-6)[GlcNAc(b1-3)Gal(b1-4)GlcNAc(b1-3)Gal(b1-4)GlcNAc(b1-3)Gal(b1-4)GlcNAc(b1-3)Gal(b1-4)GlcNAc(b1-2)Man(a1-3)]Man(b1-4)GlcNAc(b1-4)[Fuc(a1-6)]GlcNAc
# Method in brief: as §1
binder,measurement,setting,value
B1,glycan array binding signal (z-score),Glc(b1-6)Glc,0.811
same,glycan array binding signal (z-score),GlcA(b1-3)Gal,-0.018
same,glycan array binding signal (z-score),GlcA(b1-3)GlcNAc,-0.475
same,glycan array binding signal (z-score),GlcA(b1-6)Gal,0.408
same,glycan array binding signal (z-score),[1],-0.387
same,glycan array binding signal (z-score),[2],-0.286
same,glycan array binding signal (z-score),[3],-0.546
same,glycan array binding signal (z-score),[4],-0.412
same,glycan array binding signal (z-score),[5],-0.157
same,glycan array binding signal (z-score),[6],-0.505
same,glycan array binding signal (z-score),[7],-0.545
same,glycan array binding signal (z-score),[8],-0.601
same,glycan array binding signal (z-score),[9],-0.459
same,glycan array binding signal (z-score),[10],0.38
same,glycan array binding signal (z-score),[11],-0.521
same,glycan array binding signal (z-score),[12],-0.458
same,glycan array binding signal (z-score),[13],-0.403
same,glycan array binding signal (z-score),[14],-0.224
same,glycan array binding signal (z-score),[15],-0.263
same,glycan array binding signal (z-score),[16],-0.532
same,glycan array binding signal (z-score),[17],-0.462
same,glycan array binding signal (z-score),[18],-0.517
same,glycan array binding signal (z-score),[19],-0.476
same,glycan array binding signal (z-score),[20],-0.632
same,glycan array binding signal (z-score),[21],-0.408
same,glycan array binding signal (z-score),[22],-0.315
same,glycan array binding signal (z-score),[23],-0.563
same,glycan array binding signal (z-score),GlcNAc(b1-3)Fuc,-0.408
same,glycan array binding signal (z-score),GlcNAc(b1-3)Gal,-0.497
same,glycan array binding signal (z-score),[24],0.147
same,glycan array binding signal (z-score),GlcNAc(b1-3)Gal(b1-4)Glc,-0.256
same,glycan array binding signal (z-score),[25],-0.529
same,glycan array binding signal (z-score),[26],0.933
same,glycan array binding signal (z-score),[27],-0.313
same,glycan array binding signal (z-score),[28],0.443
same,glycan array binding signal (z-score),[29],-0.517
same,glycan array binding signal (z-score),[30],0.704
same,glycan array binding signal (z-score),[31],-0.164
same,glycan array binding signal (z-score),[32],-0.371
same,glycan array binding signal (z-score),[33],-0.297
same,glycan array binding signal (z-score),[34],0.452
same,glycan array binding signal (z-score),[35],-0.29
same,glycan array binding signal (z-score),[36],1.02
same,glycan array binding signal (z-score),[37],-0.422
same,glycan array binding signal (z-score),[38],-0.386
